Reference: patent US11541126B1, “Anti-ASGR1 antibody TLR8 agonist comprising conjugates and uses thereof” (Silverback Therapeutics, Inc., priority 2020, dated 2023)

Columns and labels:
rat CLEC10A ECD [1] = target: T1, rat CLEC10A ECD (Rattus norvegicus, UniProt P49301); assay: OCTET avidity binding to immobilized rat CLEC10A ECD
T1 construct: His-tagged rat CLEC10A ECD (R&D Systems) was immobilized to OCTET® Penta-His biosensors; purchased R&D Systems
T1 sequence (P49301 59-306 limits assumed): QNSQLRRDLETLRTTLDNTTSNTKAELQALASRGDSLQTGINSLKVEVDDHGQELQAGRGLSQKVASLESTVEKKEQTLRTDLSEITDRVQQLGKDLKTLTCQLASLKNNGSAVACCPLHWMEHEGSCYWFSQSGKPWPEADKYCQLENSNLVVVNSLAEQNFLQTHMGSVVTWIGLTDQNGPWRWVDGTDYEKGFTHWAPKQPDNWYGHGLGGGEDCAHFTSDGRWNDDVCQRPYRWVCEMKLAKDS
Procedure: Analysis of binding to the rat CLEC10A ECD was performed using the OCTET® Red 96 instrument (ForteBio). His-tagged rat CLEC10A ECD (R&D Systems) was immobilized to OCTET® Penta-His biosensors and subjected to avidity binding of test antibodies in kinetics buffer (PBS+1% BSA+0.2% Tween20+0.9 mM CaCl2) at pH 7.4) in the following steps: (1) hydration of Penta-His biosensors in kinetics buffer (10 min); (2) regeneration and neutralization of Penta-His biosensor in 10 mM glycine-HCl (pH 1.5) and kinetics buffer, respectively in triplicate; (3) baseline acquisition (30 s); (4) immobilization of rat CLEC10A ECD to Penta-His biosensors at a concentration of 10 μg/mL (180 s); (5) second baseline acquisition (60 s); (6) association of test antibody at 25 μg/mL (60 s); (7) dissociation in kinetics buffer (60 s).
The interactions of test mAbs with rat CLEC10A ECD was analyzed using the OCTET® Data Analysis Software 9.0 (ForteBio).

[2] = target: T2, human ASGR1 extracellular domain (ECD) (Homo sapiens, UniProt P07306); assay: Effect of calcium on binding to human ASGR1 ECD (OCTET); parameters: key to Ca^2+ Sensitivity during: Association / Ca^2+ Sensitivity during: Dissociation / Ca^2+ Sensitivity: N = No; Y = Yes
T2 sequence (P07306 62-291 limits assumed): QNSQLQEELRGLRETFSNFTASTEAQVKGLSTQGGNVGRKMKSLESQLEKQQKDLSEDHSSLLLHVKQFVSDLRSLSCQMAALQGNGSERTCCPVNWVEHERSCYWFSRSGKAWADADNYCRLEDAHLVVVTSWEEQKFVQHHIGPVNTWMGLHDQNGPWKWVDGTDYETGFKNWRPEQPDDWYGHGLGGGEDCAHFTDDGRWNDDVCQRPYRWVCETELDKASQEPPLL
Procedure: The ability of anti-human ASGR1 antibodies of this disclosure to bind to human ASGR1 in the presence or absence of calcium in binding buffer was examined. Briefly, ASGR1 antibodies were bound to immobilized human ASGR1 extracellular domain (ECD) at saturating levels and subsequently dissociated under three different conditions as follows: (a) binding and dissociation with buffer containing calcium (PBS+1% BSA+0.2% Tween20+0.9 mM CaCl2), pH 7.4); (b) binding with buffer containing calcium and dissociation with buffer lacking calcium; and (c) binding and dissociation with buffer lacking calcium. Analysis of ASGR1 antibody binding to human ASGR1 ECD was performed using the OCTET® Red 96 instrument and analyzed using the OCTET®Data Analysis Software 9.0 (ForteBio). His-tagged human ASGR1 ECD was immobilized to OCTET® Penta-His biosensors and ASGR1 antibodies were subjected to avidity binding under the conditions described above. Association with the ASGR1 ECD was measured by the rate of and increase in magnitude of signal response at a given antibody concentration. Dissociation from the ASGR1 ECD was measured as the rate of loss in signal upon removal of the antibody and further incubation with or without Ca^2+. […] Also tested were humanized antibodies hzH8K-1 and hzL4L-7.
Further analysis of the antibodies of this disclosure was to determine whether the presence of calcium was needed for binding (i.e., during association) of the antibodies to human ASGR1 ECD. […]

rat CLEC10A ECD [3] = target: T1, rat CLEC10A ECD; assay: OCTET equilibrium dissociation constant to monomeric rat CLEC10A ECD; assay type: binding; settings: in words
Text: Further analysis of chK2E and ASGR1 mAb-B were investigated to determine equilibrium dissociation constants to rat CLEC10A ECD by OCTET® Red 96 instrument (ForteBio). Antibodies chK2E and ASGR1 mAb-B were minimally biotinylated prior to capture to streptavidin (SA) biosensors using EZ-LINK™ NHS-PEG4-Biotin, NO-WEIGH™ Format (Thermo Scientific) at a calculated ratio of three biotins to one mAb. Biotinylated proteins were purified by ZEBA™ spin desalting columns (Thermo Scientific) to remove free biotin. The interacting monomeric rat CLEC10 ECD (R&D Systems) was used at 5-6 concentrations of a 3-fold concentration series to determine equilibrium constants in kinetics buffer using the following steps: (1) hydration of SA biosensors in kinetics buffer (10 min); (2) baseline acquisition (30 s); (3) immobilization biotinylated chK2E or ASGR1 mAb-B at concentration of 5 µg/mL (180 s or until all sensors reached a 1 nm shift); (4) second baseline acquisition (60 s); (5) association of rat CLEC10A ECD starting at 200 nM with 3× dilutions (300 s); (7) dissociation in kinetics buffer (600 s).
The data were analyzed using OCTET® Data Analysis Software 9.0 (ForteBio) and fit to the bivalent binding model. The equilibrium dissociation constants (KD) were calculated by the ratio of koff to kon.

- Binding signal to rat CLEC10A ECD (rat CLEC10A ECD [1]; in words): minor signal above background
- Response, binding to rat CLEC10A ECD (rat CLEC10A ECD [1]; test antibody at 25 μg/mL): 0.0984 nm
- Ca^2+ Sensitivity [2]: Y
- Ca^2+ Sensitivity during: Association [2]: Y
- Ca^2+ Sensitivity during: Dissociation [2]: N
- Sensitivity to calcium (difference in binding signal after dissociation >±10%) ([2]; in words): lacking sensitivity to calcium
- Off-target binding to rat CLEC10A ECD (rat CLEC10A ECD [3]): not observed to bind
B1: chK2E: chimeric antibody "chK2E (heavy chain SEQ ID NO:151; light chain SEQ ID NO:207)" (antibody)
heavy: QVQLQQSAAELARPGASVKMSCKASGYTFTSYTMHWVKQRPGQGLEWIGYISPSSGYTEYNQKFKDKTTLTADKSSSTAYMQLSSLTSEDSAVYYCARKFDYWGQGTTLTVSS[human IgG1 constant region cut from this listing]
light: DIKMTQSPSSMYASLGERVTITCKASQDINSYLSWFQQKPGKSPKTLIYRANRLVDGVPSRFSGSGSGQDFSLTISSLEYEDMGIYYCLQYDEFPFTFGSGTKLEIKRTVAAPSVFIFPPSDEQLKSGTASVVCLLNNFYPREAKVQWKVDNALQSGNSQESVTEQDSKDSTYSLSSTLTLSKADYEKHKVYACEVTHQGLSSPVTKSFNRGEC
modifications: Synthetic sequence chK2E Heavy Chain; Synthetic sequence chK2E Light Chain
